Results reported in PubChem BioAssay AID1347120 (National Center for Advancing Translational Sciences (NCATS), 2019).
Screen size: about 390,000 compounds; about 930 (0.24%) were called active. The inconclusive results got no clear call from the source; some entries with a clear call stand among them for comparison. Calls follow the shape of the dose curve; as a rule, active = well fitted activation curve with a large enough effect; inconclusive = small, poorly fitted or top-dose-only effect; inactive = no such curve, though single readings can be large or run the other way. A potency beside an inconclusive call is a rough fit, not a confirmed value.

Assay: qHTS for Suppressors of FUS Proteinopathy: Primary screen using FUS-linked yeast assay; also: nearly all actives have a fitted effect of over 55% in size
Conditions: S. cerevisiae FUS-expressing, OD600, 24 h; Potency: growth rescue; series mostly up to 76.6 µM
Summary of the method: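 Yeast FUS proteinopathy model; galactose-induced FUS (2%), starting OD 0.005. Cpds in dilution series, 24hr, 30C, 99% humidity. Abs 600 nm growth. Pos ctrl CP55940 (top 92uM final); neg ctrl DMSO.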
Potency is read from the fitted curve at half-maximal effect; tags tell the direction and shape of the fitted curve.

SMILES | Potency
CSCCC1NC2(C(=O)Nc3ccc(Cl)cc32)[C@@H]2C(=O)N(C3CCCC3)C(=O)[C@H]12 (stereo partly specified) | inconclusive: 28.2 µM [activator, single point]
CCOC(=O)N1CCc2c(sc3c2c(=O)n(Cc2ccccc2)c(=O)n3CC(=O)Nc2ccccc2F)C1 | inactive
O=C(c1cccc(F)c1)N1CCC(N2CCOCC2)CC1 | inactive
Cn1c(=O)n(C)c2cc(C(=O)c3ccccc3)ccc21 | inconclusive: 44.7 µM [activator, partial curve, poor fit]
COC(=O)C1=C(C(=O)OC)[C@@H]2N(C)c3ccccc3[C@@]23C[C@@H](CO)N(C(=O)C2CCC2)C3=N1 | inconclusive: 28.2 µM [activator, single point]
O=c1/c(=C/c2ccco2)sc2n1CN(c1cccc(Br)c1)CN=2 | inactive
CCOC(=O)c1c(C)[nH]c(CCC(=O)Nc2ccc(N(CC)CC)cc2C)c1C | inactive
COc1ccc(Br)cc1CN1CCCC(C(=O)N2CCCCCC2)C1 (stereo unspecified) | inconclusive: 56.2 µM [activator, partial curve, poor fit]
COC(=O)C1=C(CSc2nc3c(cc2C#N)CN(C)CC3)OC(N)=C(C#N)C1c1ccccc1F (stereo unspecified) | inconclusive: 31.6 µM [activator, partial curve, poor fit]
O=C(CSc1nnc(-c2cccnc2)n1Cc1ccco1)Nc1ccc(F)cc1Cl | inactive
Cc1ccc(C(=O)Nc2ccc(N3CCOCC3)cc2)cc1S(=O)(=O)N1CCCCC1 | inconclusive: 15.8 µM [activator, partial curve]
Cc1sc2ncn(-n3c(C)ccc3C)c(=O)c2c1C | inconclusive: 39.8 µM [activator, single point]
CCOC(=O)[C@H]1[C@H]2COc3ccc(Br)cc3[C@H]2N2C(=O)CN(CCc3c[nH]c4ccccc34)C(=O)[C@@]12C | inconclusive: 50.1 µM [activator, single point]
COc1cc(NC(=O)c2ccc(Br)o2)ccc1NC(=O)c1ccccc1Cl | inconclusive: 22.4 µM [activator, partial curve, poor fit]
Cc1ncccc1C(=O)N1CCCC(c2cc(C(=O)Nc3ccc(C(C)(C)C)cc3)no2)C1 (stereo unspecified) | inconclusive: 17.8 µM [activator, partial curve, poor fit]
NC(=S)NNc1ccc(Cl)c(Cl)c1 | inactive
CCOc1ccc(NC(=O)C(C)Oc2ccccc2C(=O)Nc2ccc(C)c(Cl)c2)cc1 (stereo unspecified) | inconclusive: 17.8 µM [activator, partial curve, poor fit]
CC(C)CCNC(=O)C(=O)Nc1cc2c3c(c1)CC(=O)N3CCC2 | inactive
CCOc1ccc2oc(=O)cc(CN3CCN(C(=O)c4ccc(Cl)cc4)CC3)c2c1 | inconclusive: 50.1 µM [activator, single point]
CN(c1ccccc1)S(=O)(=O)c1ccc(C(=O)N2CCc3ccccc3C2)cc1 | inconclusive: 50.1 µM [activator, single point]
S=C(Nc1ccccc1)OC1CCC12CCC(c1ccccc1)CC2 (stereo unspecified) | inactive

SMILES | Potency
CCc1[nH]nc(C(=O)N2CCCC(Nc3ccc(C(C)C)cc3)C2)c1C (stereo unspecified) | inconclusive: 31.6 µM [activator, single point]
COC(=O)[C@]1(CC(C)C)N[C@H](c2ccc(-c3ccc(F)cc3)c(OC)c2)[C@@H]2C(=O)N(C)C(=O)[C@@H]21 | active: 28.2 µM
Cc1ccc(NC(=O)COC(=O)c2ccc(Br)o2)cc1S(=O)(=O)N1CCCCC1 | inconclusive: 11.2 µM [activator, partial curve, poor fit]
Cc1ccc(C(C)C)c(OCCSc2nc(-c3cccs3)nc3cc(=O)[nH]n23)c1 | inactive
CCOC(=O)C1=C(C)N(C)C(=O)NC1c1cc2c(cc1Br)OCO2 (stereo unspecified) | inconclusive: 3.98 µM [activator, partial curve, poor fit]
CCOC(=O)c1c(N)sc(C(N)=O)c1C | inactive
Cc1cccc(OCC(=O)NCc2ccc3c(c2)CCN3C(=O)c2ccccc2)c1 | inconclusive: 28.2 µM [activator, single point]
CCn1ccc2cc(S(=O)(=O)N3CCC(C(=O)NCc4ccc(OC(C)C)cc4)CC3)ccc21 | inconclusive: 39.8 µM [activator, single point]
CC(=O)NC(c1cccc(F)c1)c1nc(-c2ccc(C)c(C)c2)cs1 (stereo unspecified) | inconclusive: 31.6 µM [activator, single point]
COCCn1c(SCc2ccc(F)cc2)nc2ccccc2c1=O | inactive
COc1ccc(-c2nc3ccc(C(=O)NCc4ccccc4)cc3nc2-c2ccc(OC)cc2)cc1 | inactive
N#CCCn1c(SCC(=O)N2CCN(S(=O)(=O)c3ccccc3)CC2)nc2ccccc21 | inactive
Cc1cccc(C)c1OCc1nc2ccccc2c(=O)n1/N=C/c1c[nH]c2ccccc12 | inactive
COc1ccccc1NC(=O)CSc1oc(-c2cccs2)nc1S(=O)(=O)c1ccc(C)cc1 | inconclusive: 31.6 µM [activator, single point]
CCOc1ccc(NC(=O)CN(C)C(=O)c2cn(-c3ccc(F)cc3)nc2-c2cccc(OC)c2)cc1OCC | inconclusive: 10 µM [activator, full curve]
Cc1cc(N2CCN(C(=O)Oc3ccc([N+](=O)[O-])cc3)CC2)c2ccccc2n1 | inactive
COc1ccc(OC)c(-c2cc(C(=O)N3CCN(c4ncccn4)CC3)c3ccccc3n2)c1 | inconclusive: 35.5 µM [activator, single point]
CSCCC(c1nc2ccccc2[nH]1)n1c(-c2cc(C(F)(F)F)cc(C(F)(F)F)c2)nc2ccccc21 (stereo unspecified) | inconclusive: 15.8 µM [activator, partial curve]
CC(C)NC(=O)C1C(c2ccc(C(F)(F)F)cc2)=Nc2ccccc2N1C(=O)c1ccccc1 (stereo unspecified) | inconclusive: 39.8 µM [activator, single point]
COc1cccc(CN2C(=O)C3(SCC(=O)N3c3cc(C)cc(C)c3)c3ccccc32)c1 (stereo unspecified) | inconclusive: 15.8 µM [activator, partial curve]
